Assay results from PubChem BioAssay AID686979 (National Center for Advancing Translational Sciences (NCATS), 2013).
Screen size: about 420,000 compounds; about 50,000 (12%) were called active. This list was built around the results that the source calls inconclusive (neither active nor inactive); the mix of calls is not that of the screen. Calls follow the shape of the dose curve; as a rule, active = well fitted inhibition curve with a large enough effect; inconclusive = small, poorly fitted or top-dose-only effect; inactive = flat fitted curve, though single readings scatter. Potencies of inconclusive entries are left out as doubtful fits.

experiment: qHTS for Inhibitors of human tyrosyl-DNA phosphodiesterase 1 (TDP1): qHTS in cells in presence of CPT; conditions: chicken DT40 Tdp1-/-;hTDP1 cells + 20 nM CPT, ATP luminescence, 48 h; activity change, negative = growth inhibition: at 46.2 µM (top of the series) unless noted; also: nearly all actives have a fitted effect of over 55% in size
Method in brief: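 Chicken DT40 Tdp1-/- cells stably complemented with human TDP1 were seeded at 400 cells/well in medium containing 20 nM camptothecin, exposed to pin-transferred compounds, and grown at 37 °C for at least 48 hr. Viability was read as ATP luminescence.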
% is scaled to controls: 0 for no effect and ±100 for the full control effect; potency is read from the fitted curve at half-maximal effect; tags tell the direction and shape of the fitted curve.

SMILES	Potency	activity change, negative = growth inhibition
COc1cc(CNc2ncnc3c2ncn3[C@H]2CN(Cc3ccccc3)C[C@@H](COC(C)=O)O2)cc(OC)c1OC	inconclusive [inhibitor, partial curve]	
C=CCSc1nc2c(N)ncnc2n1C1OC(CO)C(O)C1O (stereo not given)	inactive	
COc1ccc(N(CC(=O)Nc2ccccc2F)S(=O)(=O)c2ccc(OC)c(OC)c2)cc1	inconclusive [inhibitor, single point]	
CCSC1=NC2(CCN(C(=O)NC3CCCCC3)CC2)N=C1c1ccc(Cl)cc1	inactive	
COc1cc2[nH]c(=O)c(C(=O)NCCCN3CCCCC3)c(O)c2cc1OC	inconclusive [inhibitor, single point]	
O=[N+]([O-])c1ccc(/C=N\O)o1	inconclusive [inhibitor, single point]	
CCCN1CNc2c(c(=O)[nH]c(=S)n2CCc2ccc(C)c(C)c2)C1	inconclusive [inhibitor, single point]	
Cc1cc(C)n(NC(=S)NC2CCCCC2)c(=O)c1C#N	inactive	
O=C(Nc1ccccn1)C1CCN(S(=O)(=O)c2ccccc2)CC1	inactive	
COc1ccc(C2Nc3ccccc3C(=O)N2c2ccc(C)cc2)cc1Cn1cc([N+](=O)[O-])cn1 (stereo not given)	inconclusive [inhibitor, single point]	
CCOc1ccc(NC(=O)c2ccccc2NC(=O)c2cccnc2)cc1	inactive	
Nc1ccc(Nc2nc(-c3cccs3)cs2)cc1	inconclusive [inhibitor, single point]	
c1ccc2c(Nc3ccc(N4CCOCC4)cc3)nc(N3CCOCC3)nc2c1	inconclusive [inhibitor, single point]	
COc1cccc2sc3ccc(NCc4ccc5c(c4)OCO5)cc3c(=O)c12	inconclusive [inhibitor, single point]	
N#CCCn1cc(/C=N/NC(N)=S)c(-c2ccccc2)n1	inconclusive [inhibitor, single point]	
O=C(CN(Cc1ccco1)C(=O)CNS(=O)(=O)c1ccc(Cl)cc1)NCc1ccco1	inconclusive [inhibitor, partial curve]	
COc1ccccc1CN1CC(C(=O)NCC2(O)CCCCC2)CCC1=O (stereo not given)	inactive	
COc1ccc(C(=O)Nc2ccc(S(=O)(=O)N3CCc4ccccc43)cc2)cc1	active: 25.9 µM	
COc1ccc(C(=O)N(CC(=O)Nc2sc(C)c(C)c2C(N)=O)C2CCCC2)cc1	inconclusive [inhibitor, single point]	
COc1cccc(NC(=O)c2ccc(NCCCN3CCC(C)CC3)c([N+](=O)[O-])c2)c1	inconclusive [inhibitor, single point]	
CC(C)(C)CC(C)(C)N=C1NS(=O)(=O)c2cc([N+](=O)[O-])ccc21	inconclusive [inhibitor, single point]	
CCOc1ccc2oc(C(=O)OCC(=O)N3CC(C)OC(C)C3)c(C)c2c1 (stereo not given)	inactive	
Nn1c(SCC(=O)NC2CCCC2)nnc1C(F)(F)F	inactive	
O=C(CN1C(=O)NC2(CCCC2)C1=O)NC(c1ccccc1)c1ccccc1	inconclusive [inhibitor, single point]	

SMILES	Potency	activity change, negative = growth inhibition
O=S(=O)(c1ccccc1)N(CC(O)COc1ccccc1)c1ccccc1 (stereo not given)	inconclusive [inhibitor, single point]	
O=C(c1ccccn1)c1cc2ccccc2n1S(=O)(=O)c1ccccc1	inconclusive [inhibitor, single point]	
COC(=O)CNC(c1ccccc1)c1cc(C)ccc1NS(=O)(=O)c1ccc(C)cc1 (stereo not given)	inconclusive [inhibitor, single point]	
CC(C)(C)OC(=O)C[C@@H]1C/C=C\C[C@@H](CC(=O)N(CCO)Cc2ccccc2)C(=O)N[C@H](C(C)(C)C)COC1=O	active: 20.6 µM	
COc1cccc(CNCc2cc(OC)cc(OC)c2)c1	inconclusive [inhibitor, single point]	
O=C(CN1CCN(C(=O)c2ccco2)CC1)Nc1ccc(Br)cc1	inactive	
Cc1ccccc1C(=O)N1CCC(C(=O)N2CCCc3ccccc32)CC1	inconclusive [inhibitor, single point]	
Cc1cnc(NC(=O)c2c(Cl)cnn2C)s1	inactive	
COC(=O)C1C(O)=C(C=Nc2ccc3ccccc3c2)C(=O)CC1(C)C (stereo not given)	inactive	
O=C(Nc1ccc(F)cc1)C(c1cccc(F)c1)N1CCN(Cc2c(F)cccc2Cl)CC1 (stereo not given)	inconclusive [inhibitor, single point]	
CC1CCN(C(=O)CSc2nnc(CNC(=O)c3ccc(S(=O)(=O)N(C)C)cc3)o2)CC1	inconclusive [inhibitor, single point]	
Cc1ccc(C(=O)NCCc2nnc3n2CCN(Cc2cc(C)cc(C)c2)CC3)cc1	inconclusive [inhibitor, single point]	
C=C(C)CNC(=S)NNC(=O)CCn1c2ccc(Cl)cc2c2cc(Cl)ccc21	inconclusive [inhibitor, single point]	
Nc1cc(S(=O)(=O)O)cc2ccc(S(=O)(=O)O)cc12	inactive	
Cn1ccc2c(N3CCCCC3)cc3c(c21)C1CCC3O1 (stereo not given)	inactive	
O=C(Cc1ccccc1)Nc1nc(-c2cccs2)cs1	inconclusive [inhibitor, single point]	
COC(=O)C1=C(C)N(Cc2ccccc2)C(=O)/C1=C\c1ccco1	inconclusive [inhibitor, single point]	
Cc1cccc(NS(=O)(=O)c2ccc3c(c2)C(C)(C)C(=O)N3C)c1	inconclusive [inhibitor, single point]	
O=C(O/N=C1\C(=O)N(c2ccccc2)c2ccccc21)C1CC1	inconclusive [inhibitor, partial curve]	
CC(=O)Nc1ccc(NC(=O)C2CCCN2S(=O)(=O)c2cccc(C(F)(F)F)c2)cc1 (stereo not given)	inactive	
COC(C[C@@H](O)C[C@@H](O)COCc1ccccc1)OC	inactive	
COc1ccccc1C(=O)NC(CCSC)C(=O)NCC(c1cccs1)N1CCOCC1 (stereo not given)	inactive	
COc1cccc(C(=O)NCCN2CCN(c3ccc(Cl)cc3)CC2)c1	inconclusive [inhibitor, partial curve]	
O=C(CSc1ccccc1)NCCCc1ccccc1	inactive	

SMILES	Potency	activity change, negative = growth inhibition
Cc1ccc(C)c(NC(=O)Nc2csc3c2CCCC3)c1	inconclusive [inhibitor, partial curve]	
O=S(=O)(O)c1cc2onnc2c2ccccc12	inconclusive [inhibitor, single point]	
COc1ccccc1NC(=O)Cn1c(=O)n(Cc2nc(-c3ccccc3)no2)c(=O)c2ccccc21	inactive	
Cn1nc(-c2ccccc2)c(CO)c1Sc1ccccc1	inactive	
CCCCOc1ccc(/C=C(\C#N)C(=O)NC2CC2)cc1	inconclusive [inhibitor, single point]	
Cc1ccc(C(=O)C(C)Oc2ccc3ccc(=O)oc3c2)cc1 (stereo not given)	inconclusive [inhibitor, single point]	
CCOc1ccc2nc(N3CCCC(C(=O)NCc4ccc(C)cc4)C3)sc2c1 (stereo not given)	inconclusive [inhibitor, single point]	
Cc1cccc(C(=O)OCC(=O)Nc2ccc3c(c2)OCCO3)c1O	inactive	
CCn1c(CNC(=O)c2ccco2)nnc1SCC(=O)Nc1cc(C(F)(F)F)ccc1Cl	inconclusive [inhibitor, single point]	
CCOC(=O)N1CCN(Cc2ccc(OCC(O)CN3CCCCC3)cc2)CC1 (stereo not given)	inconclusive [inhibitor, partial curve, poor fit]	
CCOc1ccc(S(=O)(=O)N2CCN(c3ccccc3OC)CC2)c2cccnc12	inconclusive [inhibitor, single point]	
O=c1[nH]c(=S)ccn1C1OC(CO)C(O)C1O (stereo not given)	inconclusive [inhibitor, single point]	
Cc1ccc(S(=O)(=O)N(C)C[C@H]2OCCCC[C@H](C)Oc3ccc(NC(=O)Nc4cccc5ccccc45)cc3C(=O)N([C@@H](C)CO)C[C@H]2C)cc1	inactive	
CCOC(=O)C1(CCc2ccccc2)CCN(C(=O)c2cnc(C)cn2)CC1	inconclusive [inhibitor, single point]	
CCOc1ccc(S(=O)(=O)N(C)c2ccc(OCC(=O)Nc3ccccc3F)cc2)cc1	inconclusive [inhibitor, single point]	
COc1ccc(NC(=O)CN(C)CC(=O)c2[nH]c(C)c(C(C)=O)c2C)cc1	inconclusive [inhibitor, partial curve]	
COc1ccc(NC(=O)Cn2cc(C(=O)c3cccs3)c3ccccc32)cc1	inconclusive [inhibitor, single point]	
S=C(Nc1ccccc1)Nc1ccc2ccccc2c1		inconclusive: -31.1% [inhibitor]
COc1cc(NC(=O)c2ccc(Cl)cc2)c(OC)cc1NC(=O)CN1CCCCC1	inconclusive [inhibitor, single point]	
O=[N+]([O-])c1ccc(NC(=S)NCc2ccc(F)cc2)cc1	inconclusive [inhibitor, single point]	
O=c1[nH]cnc2c1ncn2C1OC(CO)CC1F (stereo not given)	active: 0.461 µM	
COc1ccccc1-c1nnc(NC(=O)c2ccccc2F)o1	inconclusive [inhibitor, single point]	
